Assay results published in article PMC6919601, “Identification of Plasmodium dipeptidyl aminopeptidase allosteric inhibitors by high throughput screening” (PLoS ONE, 2019).
Out of some 110,000 compounds screened, about 230 (0.21%) showed an effect of 50% or more. The list shows a part of the results.
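Also: 30 min substrate incubation versus DMSO and 10 µM JCP410 controls.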

The molecules below were run against DPAP1 (Plasmodium falciparum, UniProt Q8IIJ9) (assay: primary screen, percent inhibition; read by cleavage of a fluorogenic dipeptide substrate; higher = more effect of the substance).
Chain of DPAP1 (Q8IIJ9 whole entry, looked up): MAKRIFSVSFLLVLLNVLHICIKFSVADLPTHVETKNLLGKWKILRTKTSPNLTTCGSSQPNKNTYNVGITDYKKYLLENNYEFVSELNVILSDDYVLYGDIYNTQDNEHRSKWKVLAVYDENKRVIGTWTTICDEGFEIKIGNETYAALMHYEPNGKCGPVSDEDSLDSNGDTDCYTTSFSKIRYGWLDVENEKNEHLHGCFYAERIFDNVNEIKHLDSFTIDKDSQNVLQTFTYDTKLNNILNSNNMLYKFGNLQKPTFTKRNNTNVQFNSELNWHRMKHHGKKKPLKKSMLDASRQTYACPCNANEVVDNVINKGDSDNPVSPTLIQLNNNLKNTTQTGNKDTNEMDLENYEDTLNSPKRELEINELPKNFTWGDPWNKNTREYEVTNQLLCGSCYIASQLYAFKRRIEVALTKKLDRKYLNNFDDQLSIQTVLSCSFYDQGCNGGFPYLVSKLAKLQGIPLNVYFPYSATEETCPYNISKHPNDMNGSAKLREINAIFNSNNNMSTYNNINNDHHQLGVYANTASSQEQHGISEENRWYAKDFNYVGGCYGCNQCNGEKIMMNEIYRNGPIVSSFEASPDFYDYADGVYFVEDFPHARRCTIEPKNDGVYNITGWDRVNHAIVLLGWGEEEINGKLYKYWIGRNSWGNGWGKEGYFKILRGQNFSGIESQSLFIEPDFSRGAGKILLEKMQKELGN
Design: species or system P. falciparum D10 trophozoite lysates; single well
For Cc1cc(OCC(=O)NCc2nc3ccccc3[nH]2)cc(C)c1Cl, the “% Inhibition @ 10 uM” value was 5.7%. With CC(C)C(=O)N1CCN(c2ccc(NC(=O)c3ccc(Br)o3)cc2Cl)CC1 the “% Inhibition @ 10 uM” value was 1.63%. O=C(NCc1noc2ccccc12)N(Cc1ccco1)C1CCCC1 was tested, and the “% Inhibition @ 10 uM” value was -1.39%. O=C(O)c1cccc([N+](=O)[O-])c1C(=O)Nc1ccc(O)cc1 was tested, and the “% Inhibition @ 10 uM” value was -6.83%. With Cc1cccc(C2Oc3ccccc3C3CC(c4cccs4)=NN32)c1O (stereo not drawn) the “% Inhibition @ 10 uM” value was 7.56%. With CCN1CCC(C#N)(NC(=O)[C@H](Cc2c(F)cc(OC)cc2F)NC(=O)c2ccc(-c3ccccc3Cl)cc2)CC1 the “% Inhibition @ 10 uM” value was -3.14%. In the case of COc1cc(C(=O)N(CCc2ccccc2)C2=CC3CCC(C2)N3C)cc(OC)c1OC (stereo not drawn), the “% Inhibition @ 10 uM” value is reported as 3.01%. With Cc1ccnc(NC(=O)CCc2nnc3ccc(N4CCC(C)CC4)nn23)c1 the “% Inhibition @ 10 uM” value was 1.39%. In the case of COc1ccc(C(=O)/C=C2\C(=O)Nc3ccccc32)cc1, the “% Inhibition @ 10 uM” value is reported as -2.51%. CCOC(=O)c1cccc(-c2ccc(/C=C3/C(=N)N4OC(C)=CC4=NC3=O)o2)c1 was tested, and the “% Inhibition @ 10 uM” value was 3.63%. With COc1ccc(-c2nn(C)c(=O)c3ccccc23)cc1CNC(=O)C1CCCCC1 the “% Inhibition @ 10 uM” value was 2.1%. In the case of c1ccc2c(c1)N1CCCN=C1N2CCN1CCCCC1, the “% Inhibition @ 10 uM” value is reported as -4.04%. CCOc1ccc(-c2cc(C(=O)NCC3COc4ccccc4O3)c3ccccc3n2)cc1 (stereo not drawn) was tested, and the “% Inhibition @ 10 uM” value was -2.26%. In the case of COCCCNC(=O)CSc1[nH]c(-c2ccc(OC)cc2)nc1-c1ccc(F)cc1, the “% Inhibition @ 10 uM” value is reported as 6.59%. In the case of N#C/C(=C\c1ccc(Br)cc1)c1nc(-c2ccc(Cl)c(Cl)c2)cs1, the “% Inhibition @ 10 uM” value is reported as 1.41%. For O=C(NCc1cccnc1)C1c2ccccc2C(=O)N1CCc1ccc(Cl)cc1 (stereo not drawn), the “% Inhibition @ 10 uM” value was 4.07%. For Cn1c(NCc2cc(Cl)cc(Cl)c2O)nc2ccccc21, the “% Inhibition @ 10 uM” value was -8.7%. CC(C)CCNc1ncnc2c1cnn2C was tested, and the “% Inhibition @ 10 uM” value was -1.97%. CC(=O)Nc1ccc(S(=O)(=O)N2CCN(S(=O)(=O)c3ccc(C)cc3)CC2)cc1 was tested, and the “% Inhibition @ 10 uM” value was 6.17%. In the case of CCOC(=O)N1CCN(C(=O)C2=CCN(S(=O)(=O)c3ccc(Br)cc3)CC2)CC1, the “% Inhibition @ 10 uM” value is reported as 5.09%. In the case of OC(COCCC12CC3CC(CC(C3)C1)C2)CN1CCOCC1 (stereo not drawn), the “% Inhibition @ 10 uM” value is reported as -0.239%. In the case of O=[N+]([O-])c1ccc2nc(O)c(/C=C(\O)c3ccc(F)cc3)nc2c1, the “% Inhibition @ 10 uM” value is reported as -5.44%. For COCc1noc2c1C(c1ccc(F)cc1)C(C#N)=C(N)N2 (stereo not drawn), the “% Inhibition @ 10 uM” value was -2.16%. For CCS(=O)(=O)c1oc(-c2cccs2)nc1S(=O)(=O)c1ccccc1, the “% Inhibition @ 10 uM” value was 5.29%. C=CCn1c(SCc2cccc(C)c2)nc2c1c(=O)n(C)c(=O)n2C was tested, and the “% Inhibition @ 10 uM” value was 2.46%. For COc1cccc(C(=O)c2cc3ccc(OC)cc3o2)c1, the “% Inhibition @ 10 uM” value was -1.64%. Cc1oc2ccc(O)c(CN3CCN(C)CC3)c2c1C(=O)OCC(C)C was tested, and the “% Inhibition @ 10 uM” value was -6.72%. With O=C(NCCc1ccccc1)c1nc2ncccn2n1 the “% Inhibition @ 10 uM” value was -5.41%. For O=C(Cn1cc(C(=O)c2ccco2)c2ccccc21)NCCc1c[nH]c2ccccc12, the “% Inhibition @ 10 uM” value was -1.72%. With OCCCc1nc2ccccc2n1Cc1c(F)cccc1Cl the “% Inhibition @ 10 uM” value was -8.08%. For COc1cc(NC(=O)c2ccc([N+](=O)[O-])cc2)cc(OC)c1, the “% Inhibition @ 10 uM” value was 3.34%. Nn1cnn2c(SCC(=O)Nc3cccnc3Cl)nnc12 was tested, and the “% Inhibition @ 10 uM” value was -8.17%. For Cc1nc2ccccc2n1S(=O)(=O)c1cc(Cl)ccc1Cl, the “% Inhibition @ 10 uM” value was -2.34%. In the case of COc1ccc(C2(CNC(=O)C(=O)NC3CCCCC3)CCCC2)cc1OC, the “% Inhibition @ 10 uM” value is reported as -1.71%. FC(F)(F)c1ccccc1CNc1ccc2[nH]ncc2c1 was tested, and the “% Inhibition @ 10 uM” value was 0.217%. With CCOC(=O)C1=C(C)N=c2s/c(=C/c3cc(C)n(C)c3C)c(=O)n2C1c1cc(OC)ccc1OC (stereo not drawn) the “% Inhibition @ 10 uM” value was -1.25%. COc1ccc(CCNC(=O)C2CC2)cc1OC was tested, and the “% Inhibition @ 10 uM” value was 8.01%. In the case of C=C(C)Cn1c(=S)[nH]c2sc3c(c2c1=O)CCCC3, the “% Inhibition @ 10 uM” value is reported as 57.3%. For CC(=O)N1CCC2(CC1)OC(=O)C(C)=C2C(=O)NCc1cccs1, the “% Inhibition @ 10 uM” value was -2.13%. With COc1ccc(C)cc1NC(=O)CN(c1cccc(C(F)(F)F)c1)S(C)(=O)=O the “% Inhibition @ 10 uM” value was -7.09%. In the case of COc1ccc(-c2noc(-c3ccco3)n2)cc1, the “% Inhibition @ 10 uM” value is reported as -2.99%. With CC1=C(c2ccccc2)C(c2ccccc2)CC1=O (stereo not drawn) the “% Inhibition @ 10 uM” value was -2.8%. CCOC(=O)C1=C(C)N=C(C)/C(=C(/O)OCC)C1/C=C/c1ccccc1 (stereo not drawn) was tested, and the “% Inhibition @ 10 uM” value was -4.32%. For Cc1cc(O)nc2c3ccccc3nn12, the “% Inhibition @ 10 uM” value was -5.37%. O=C(CCc1ccccc1)C1(O)CCCCC1 was tested, and the “% Inhibition @ 10 uM” value was 1.42%. c1ccc(-c2nnc3sc(-c4cc5ccccc5o4)nn23)cc1 was tested, and the “% Inhibition @ 10 uM” value was -1.69%. For Cc1cccn2c(=O)c3cc(C(=O)NCCN4CCOCC4)c(=N)n(CCOCCO)c3nc12, the “% Inhibition @ 10 uM” value was -1.47%. In the case of COc1ccc(C2C(=O)N(C3CCCCC3)CC(=O)N2C2CCCc3ccccc32)cc1 (stereo not drawn), the “% Inhibition @ 10 uM” value is reported as -0.519%. With CCOC(=O)c1cnc(SCC(=O)N2CCCC2)nc1N the “% Inhibition @ 10 uM” value was 0.558%. With COc1ccc(C2C(C#N)=C(N)Oc3[nH]nc(-c4ccc(Cl)cc4)c32)cc1O (stereo not drawn) the “% Inhibition @ 10 uM” value was -2.78%. COc1nc(N)c(C#N)c(-c2cccnc2)c1C#N was tested, and the “% Inhibition @ 10 uM” value was -4.61%. Cc1ccc(-c2csc(/C(C#N)=C/c3ccc(Cl)cc3Cl)n2)cc1 was tested, and the “% Inhibition @ 10 uM” value was -4.08%. In the case of O=C(c1ccc2snnc2c1)N1CCCCC1, the “% Inhibition @ 10 uM” value is reported as -3.52%. For CC(C)C(=O)N1CCC(Cc2ccccc2)CC1, the “% Inhibition @ 10 uM” value was -8.61%. For CCc1nn(CC(=O)NCCc2cc(OC)ccc2OC)c(=O)c2cc3sccc3n12, the “% Inhibition @ 10 uM” value was -3.35%. In the case of CCN(CC)C(=O)c1ccc(CS(=O)c2ccc(Cl)cc2)o1 (stereo not drawn), the “% Inhibition @ 10 uM” value is reported as 0.458%. For Cc1ccc(CN2C(=O)N/C(=C/c3ccc(OCC(=O)Nc4ccccc4)cc3)C2=O)cc1, the “% Inhibition @ 10 uM” value was 2.49%. CC(C)C[C@H](NC(=O)c1cccc(-c2cccc(S(N)(=O)=O)c2)c1)C(=O)NCC#N was tested, and the “% Inhibition @ 10 uM” value was -5.2%. With O=C1c2ccccc2-c2nnc(-c3cccs3)cc21 the “% Inhibition @ 10 uM” value was -2.47%. In the case of CCOC(=O)N1CCN(S(=O)(=O)c2ccc3ccccc3c2)CC1, the “% Inhibition @ 10 uM” value is reported as -12.5%. In the case of CC(C)c1ccc(/C=C/C(=O)NCCc2ccccc2)cc1, the “% Inhibition @ 10 uM” value is reported as 2.13%. In the case of O=C(NCCCc1ccccc1)c1c(O)nc2c(c1O)CCCC2, the “% Inhibition @ 10 uM” value is reported as -3.93%. For CC(C)c1nnc(NC(=O)CCCCCN2C(=O)C3C4C=CC(C4)C3C2=O)s1 (stereo not drawn), the “% Inhibition @ 10 uM” value was 2.46%.
